# Results published in the supplement of paper PMC3656093.
# Where “and” joins values, the source holds several entries; their conditions need not be identical. Identical values can stand only once. ± gives the standard deviation of the averaged measurements. The full ranking holds about 1,900 compounds; the median of “CD40L-induced NF-kB luciferase activity, plate-corrected, relative to DMSO (0) and IKK inhibitor VII (-100) controls” is about 0.032, and the lowest 2% start at about -26. This is one part of the list.
# Tested on: BL2-NFkB-Luc
# Assay: CD40L-induced NF-kB luciferase activity, plate-corrected, relative to DMSO (0) and IKK inhibitor VII (-100) controls (% normalized activity); higher = more NF-kB reporter activity (less inhibition)
# Conditions: 9.4 µM; stimulus: tCD40L 64 ng/ml; 4.5 h
# Description: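 BL2 B cells with a stable NF-kB response-element luciferase reporter (BL2-NFkB-Luc), 384-well. Cells were pre-incubated with compound at 9.4 uM for 1 h at 37 C, then stimulated with 64 ng/ml trimerized CD40L for 4.5 h; luciferase was read with Steady-Glo. Signal was normalised per plate in Genedata (median DMSO neutral control = 0, median IKK inhibitor VII at 50 uM = -100) with Assay Median plate-pattern correction; duplicate plates.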
row,SMILES,CD40L-induced NF-kB luciferase activity
1,COc1cccc(C2CCCN2Cc2nc(CCC(C)C)no2)c1 (configuration not stated),0.228 ± 0.79
2,COc1ccc(N2C(=O)C3C(C2=O)C(C(=O)c2ccccc2)N2CCCC32)cc1 (configuration not stated),-2.68 ± 1.2
3,CCOC(=O)c1oc2cc(O)cc(C)c2c(=O)c1-c1cscn1,3.92 ± 3.1
4,Nc1nc(Cl)nc2c1ncn2[C@@H]1O[C@H](CO)[C@@H](O)[C@H]1O,-4.04 ± 0.72
5,CCCCOn1c(C)c(C(C)=O)c2c3no[n+]([O-])c3ccc21,4.46 ± 2.4
6,CC(C)COC(=O)C1C(=O)CC(C)(O)C(C(=O)OCC(C)C)C1c1cccnc1 (configuration not stated),3.96 ± 1.7
7,NC(=O)C1CCCNC1 (configuration not stated),1.16 ± 1.4
8,Cc1cc(=O)oc2c(CN(C)Cc3ccccc3)c(O)ccc12,1.68 ± 3.7
9,O=C(O)c1ccc(-c2ccc(O)c(F)c2)cc1,-1.88 ± 1.6
10,Cn1cc(CN2CCCC(CO)(Cc3cccc(Cl)c3)C2)cn1 (configuration not stated),0.825 ± 1
11,O=C1CC(c2ccc(O)cc2)Oc2cc(O)cc(O)c21 (configuration not stated),-0.369 ± 1.6
12,CC(=O)NS(=O)(=O)c1ccc(N)cc1,-4.13 ± 0.52
13,CCOc1ccc(C(=O)N2CCCC2C(=O)O)cc1 (configuration not stated),2.22 ± 8
14,Cc1cn([C@H]2C=C[C@@H](CO)O2)c(=O)[nH]c1=O,-7.63 ± 3.5
15,Cc1ccc(C=NNc2nc(C(C)(C)C)cs2)o1,37 ± 13
16,c1ccc2c(CC3=NCCN3)cccc2c1,-6.05 ± 14

row,SMILES,CD40L-induced NF-kB luciferase activity
1,COc1ccc(/C=C\c2cc(OC)c(OC)cc2CC[N+](C)(C)C)cc1OC,1.04 ± 1.8
2,CC(=O)OCC(=O)[C@@]12OC(C)(C)O[C@@H]1C[C@H]1[C@@H]3C[C@H](F)C4=CC(=O)C=C[C@]4(C)[C@@]3(F)[C@@H](O)C[C@@]12C,-11.4 ± 5.5
3,COc1ccc(C(=O)CC2OC(=O)c3c2ccc(OC)c3OC)cc1 (configuration not stated),-12.7 ± 14
4,CCN(CC)CC(=O)Nc1c(C)cccc1C,-0.96 and -1.5
5,CC(=O)CSc1ncnc2c1cnn2-c1ccccc1,4.76 ± 8.4
6,CC(C)C12CN3CC(C(C)C)(CN(C1)C31C(=O)Nc3ccccc31)C2=O (configuration not stated),-4.82 ± 5.7
7,CC(=O)CCc1oc2ccccc2c1-c1ccccc1,1.92 ± 12
8,COc1ccc(Cc2noc(CN(C)CCN3CCc4ccccc4C3)n2)cc1OC,0.711 ± 1
9,NC(N)=NC(=O)c1nc(Cl)c(N)nc1N,1.4 ± 3.5
10,CCOC(=O)COc1ccc2c(=O)c(-c3ccccc3)coc2c1,-3.83 ± 3
11,Cc1cccc(C)c1NS(=O)(=O)c1ccc(NC(=O)c2ccc(Cl)c([N+](=O)[O-])c2)cc1,-4.25 ± 4
12,COC(=O)c1cc(=O)c2ccc(OC)cc2o1,5.82 ± 2.6
13,CCc1ccc(/C=C2\SC(=S)N(CCC(=O)N3CCN(C)CC3)C2=O)cc1,4.79 ± 10
14,O=S(=O)(NCCCCCNS(=O)(=O)c1ccccc1)c1ccccc1,-7.09 ± 9.8
15,CC12CN3CC(C)(CN(C1)C3c1ccc(Br)cc1O)C2 (configuration not stated),-7.16 ± 3.5
16,CCOC(=O)/C=C1\NC(C)(C)Cc2cc(OC)c(OC)cc21,0.283 ± 0.81
